Substitutions are numbered along the chain they refer to; changes in the protein carry UniProt numbers. Some of the results follow.
T1: RBFOX1 RRM RbFoxmut (Fox-RRM*) (Homo sapiens, UniProt Q9NWB1 109-208, R118D;E147R;N151S;E152T)
T1 sequence: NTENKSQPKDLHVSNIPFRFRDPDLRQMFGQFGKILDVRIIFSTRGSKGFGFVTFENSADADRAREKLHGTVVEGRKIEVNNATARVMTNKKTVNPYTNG

B1: AGUAACC (DNA:RNA)
RNA: GGGAGACCGGAAUUCAGAUUGUCCAGUAACCUUAAAUCCCGUCGUAGCCACCA
DNA 1: CAATCTGAATTCCGGTCTCCC
DNA 2: TGGTGGCTACGACGGGATT
B2: CAUCCUU (DNA:RNA)
RNA: B1 RNA with A25C, G26A, A28C, A29C, C30U, C31U
DNA 1: CAATCTGAATTCCGGTCTCCC
DNA 2: TGGTGGCTACGACGGGATT
B3: CAAUCCC (DNA:RNA)
RNA: B1 RNA with A25C, G26A, U27A, A28U, A29C
DNA 1: CAATCTGAATTCCGGTCTCCC
DNA 2: TGGTGGCTACGACGGGATT
B4: GGGUUAU (DNA:RNA)
RNA: B1 RNA with A25G, U27G, A28U, A29U, C30A, C31U
DNA 1: CAATCTGAATTCCGGTCTCCC
DNA 2: TGGTGGCTACGACGGGATT
B5: CAUCUCU (DNA:RNA)
RNA: B1 RNA with A25C, G26A, A28C, A29U, C31U
DNA 1: CAATCTGAATTCCGGTCTCCC
DNA 2: TGGTGGCTACGACGGGATT
B6: GCACACG (DNA:RNA)
RNA: B1 RNA with A25G, G26C, U27A, A28C, C31G
DNA 1: CAATCTGAATTCCGGTCTCCC
DNA 2: TGGTGGCTACGACGGGATT
B7: AGGAUAG (DNA:RNA)
RNA: B1 RNA with U27G, A29U, C30A, C31G
DNA 1: CAATCTGAATTCCGGTCTCCC
DNA 2: TGGTGGCTACGACGGGATT
B8: GUUAUAA (DNA:RNA)
RNA: B1 RNA with A25G, G26U, A29U, C30A, C31A
DNA 1: CAATCTGAATTCCGGTCTCCC
DNA 2: TGGTGGCTACGACGGGATT
B9: GUGGGUU (DNA:RNA)
RNA: GGGAGACCGGAAUUCAGAUUGUCCGUGGGUUUUAAAUCCCGUCGUAGCCACCA
DNA 1: CAATCTGAATTCCGGTCTCCC
DNA 2: TGGTGGCTACGACGGGATT

The binders below were run against T1, RBFOX1 RRM RbFoxmut (Fox-RRM*) (assay: EMSA; HiTS-Eq, 1 nM pool, 10 min; buffer printed only for the single-RNA assays: 10 mM Tris pH 7.5, 150 mM NaCl, 3.4 mM EDTA, 0.001% NP-40, 30 C). Conditions: tags: His6 N-terminal (pET28a); label: 5' 32P.
Method in brief: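 These values rest on relative association constants, computed from read-count changes of each RNA species versus the control reaction and normalised to the cognate motif. Reads came from free RNA recovered by 8% native PAGE after purified RbFox RRM (wild type or mutant) at increasing concentrations was equilibrated for 10 min in 50 µL with 1 nM of a 5′-radiolabelled pool with 7 randomized nucleotides and DNA-annealed flanks.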

Row | Binder | binding signal
1 | B1 | 0.0751 KA relative to UGCAUGU
2 | B2 | 0.11 KA relative to UGCAUGU
3 | B3 | 0.0667 KA relative to UGCAUGU
4 | B4 | 0.112 KA relative to UGCAUGU
5 | B5 | 0.0757 KA relative to UGCAUGU
6 | B6 | 0.129 KA relative to UGCAUGU
7 | B7 | 0.119 KA relative to UGCAUGU
8 | B8 | 0.17 KA relative to UGCAUGU
9 | B9 | 0.132 KA relative to UGCAUGU
